Measurements: paper PMC4174998 (Journal of Medicinal Chemistry, 2014)

Assays:
plasma RBP4 = plasma RBP4 (Rattus norvegicus, UniProt P04916); experiment: Plasma RBP4 lowering in rats; assay type: in vivo
hERG channel = hERG channel (Homo sapiens, UniProt Q12809); experiment: Off-target activity at hERG
[1] = rat, urine 0–48 h after iv administration
in vivo = conditions: male, Sprague Dawley, rat, plasma, po, 5 mg/kg
lipofuscin bisretinoids = conditions: cited from earlier work
serum RBP4 [2] = conditions: extended clinical studies; cited from earlier work
[3] = target: retinol-dependent RBP4-TTR interaction (Homo sapiens, UniProt P02753); experiment: HTRF assay for antagonists of retinol-induced RBP4-TTR interaction; assay type: biochemical; conditions: (S)-isomer versus its (R)-congener
serum RBP4 [4] = conditions: Abca4–/– mouse, chronic administration; cited from earlier work
visual cycle retinoids = conditions: Abca4–/– mouse, chronic administration; cited from earlier work
human RBP4 = human RBP4 (Homo sapiens, UniProt P02753); assay type: binding
[5] = Liver microsomal stability across multiple species; assay type: in vitro ADME

Chain of UniProt Q12809 (Q12809 whole entry): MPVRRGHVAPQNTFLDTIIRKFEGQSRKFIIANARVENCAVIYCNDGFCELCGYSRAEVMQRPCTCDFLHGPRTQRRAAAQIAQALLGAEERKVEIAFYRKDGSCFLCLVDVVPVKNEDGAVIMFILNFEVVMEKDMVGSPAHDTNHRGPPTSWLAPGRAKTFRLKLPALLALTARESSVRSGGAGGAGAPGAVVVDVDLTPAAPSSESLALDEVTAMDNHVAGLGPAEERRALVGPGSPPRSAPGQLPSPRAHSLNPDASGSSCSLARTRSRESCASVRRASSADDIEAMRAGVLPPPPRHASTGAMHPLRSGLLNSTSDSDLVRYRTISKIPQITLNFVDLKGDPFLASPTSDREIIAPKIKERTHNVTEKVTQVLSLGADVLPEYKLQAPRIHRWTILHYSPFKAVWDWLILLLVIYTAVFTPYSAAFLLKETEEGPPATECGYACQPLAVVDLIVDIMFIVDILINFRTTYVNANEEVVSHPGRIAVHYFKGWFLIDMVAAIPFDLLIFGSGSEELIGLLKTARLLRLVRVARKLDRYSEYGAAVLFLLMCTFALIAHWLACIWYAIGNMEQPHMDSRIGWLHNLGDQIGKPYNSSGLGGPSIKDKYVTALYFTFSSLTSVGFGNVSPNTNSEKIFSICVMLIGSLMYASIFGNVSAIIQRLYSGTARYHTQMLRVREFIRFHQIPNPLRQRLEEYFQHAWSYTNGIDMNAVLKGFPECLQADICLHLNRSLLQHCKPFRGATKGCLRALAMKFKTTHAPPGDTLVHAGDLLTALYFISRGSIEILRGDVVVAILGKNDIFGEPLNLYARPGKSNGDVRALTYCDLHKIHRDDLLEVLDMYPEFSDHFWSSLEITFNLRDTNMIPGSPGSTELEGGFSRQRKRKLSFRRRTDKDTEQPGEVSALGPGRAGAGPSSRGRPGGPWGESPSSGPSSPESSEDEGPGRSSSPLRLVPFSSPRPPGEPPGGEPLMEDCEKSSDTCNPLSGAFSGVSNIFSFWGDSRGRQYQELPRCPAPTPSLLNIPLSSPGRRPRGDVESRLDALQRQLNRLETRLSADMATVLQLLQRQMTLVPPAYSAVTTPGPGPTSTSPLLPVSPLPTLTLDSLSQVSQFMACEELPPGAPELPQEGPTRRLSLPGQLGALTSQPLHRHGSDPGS

## O=C(O)c1ccccc1NC(=O)N1C[C@H]2C[C@@H](c3ccccc3C(F)(F)F)C[C@H]2C1 [Compound 43, 2-((3aR,5r,6aS)-5-(2-(Trifluoromethyl)phenyl)octahydrocyclopenta[c]pyrrole-2-carboxamido)benzoic Acid]
Plasma RBP4; 7-day oral administration at 5 mg/kg
  reduction in plasma RBP4: approximately 60%
Plasma RBP4; single 5 mg/kg oral dose
  decrease in plasma RBP4: 30–50%
hERG channel
  off-target activity at the hERG channel: no significant off-target activity
[1]
  unchanged compound in urine: No unchanged 43 was quantifiable
In vivo
  AUC(0-inf): 43900 ng·h/mL
  AUC(0-t): 43600 ng·h/mL
  Cmax: 3950 ng/mL
  Tmax: 2.9 h
  bioavailability: 31%
  half-life: 6.2 h

## CC1=C(/C=C/C(C)=C/C=C/C(C)=C/C(=O)Nc2ccc(O)cc2)C(C)(C)CCC1 [fenretinide]
Lipofuscin bisretinoids; Abca4–/– mouse model, ref 13a
  accumulation of lipofuscin bisretinoids: significantly reduced accumulation of lipofuscin bisretinoids
Serum RBP4 [2]
  serum RBP4 in AMD patients: reduce serum RBP4

## C[C@H](NC(=O)N1C[C@H]2C[C@@H](c3ccccc3C(F)(F)F)C[C@H]2C1)C(=O)O [Compound (S)-59, (S)-2-((3aR,5S,6aS)-5-(2-(Trifluoromethyl)phenyl)octahydrocyclopenta[c]pyrrole-2-carboxamido)propanoic Acid]
[3]
  eudismic ratio, HTRF assay: ~1.7

## O=C(O)c1ccccc1NC(=O)N1CCC(c2ccccc2C(F)(F)F)CC1 [Compound 3, 2-(4-(2-(trifluoromethyl)phenyl)piperidine-1-carboxamido)benzoic acid]
Lipofuscin bisretinoids; Abca4–/– mouse, chronic administration
  reduction of accumulation of lipofuscin bisretinoids: approximately 50%
Serum RBP4 [4]
  reduction in serum RBP4: 75%
Visual cycle retinoids
  reduction in certain visual cycle retinoids: 30–50%

## O=C(O)c1cccnc1NC(=O)N1C[C@H]2C[C@@H](c3ccccc3C(F)(F)F)C[C@H]2C1 [Compound 54, 2-((3aR,5R,6aS)-5-(2-(Trifluoromethyl)phenyl)octahydrocyclopenta[c]pyrrole-2-carboxamido)nicotinic Acid]
Human RBP4
  RBP4 activity: essentially devoid of activity

## CN(CCOc1ccccc1C(C)(C)C)C(=O)Nc1ccccc1C(=O)O [Compound 25, 2-(3-(2-(2-(tert-Butyl)phenoxy)ethyl)-3-methylureido)benzoic Acid]
[5]
  liver microsomal stability across multiple species: poor liver microsomal stability across multiple species

## CN(CCOc1ccccc1C(F)(F)F)C(=O)Nc1ccccc1C(=O)O [Compound 20, 2-(3-Methyl-3-(2-(2-(trifluoromethyl)phenoxy)ethyl)ureido)benzoic Acid]
Human RBP4
  less potent than A1120: ~100 fold

## O=C(O)[C@@H](NC(=O)N1C[C@H]2C[C@@H](c3ccccc3C(F)(F)F)C[C@H]2C1)c1ccccc1 [Compound (S)-61, (S)-2-Phenyl-2-((3aR,5S,6aS)-5-(2-(Trifluoromethyl)phenyl)octahydrocyclopenta[c]pyrrole-2-carboxamido)acetic Acid]
Human RBP4; (S)-isomer versus its (R)-congener
  eudismic ratio, SPA assay: ~10
[3]
  eudismic ratio, HTRF assay: ~10
